Consider 15 compounds from PubChem BioAssay AID2202238 (Ras Initiative Chemistry Research Team, Frederick National …, 2025).

The other results are listed elsewhere or left out. Further columns of the screen follow, without active or inactive calls.

The assay addresses GTPase KRas (Homo sapiens) (UniProt P01116). The assay can be described thus: Covalent labelling of cysteine mutants by fragments, read by mass spectrometry (AID 2202238). The settings on record: KRAS G12D cysteine mutants, disulfide tethering, MALDI-TOF labeling, stronger effect = higher value, fragment at 500 µM. Also on record: protein at 5 µM with 500 µM competing thiol for 1.5 h.
UniProt P01116, sequence (P01116 whole entry, looked up, the tested form may be a part): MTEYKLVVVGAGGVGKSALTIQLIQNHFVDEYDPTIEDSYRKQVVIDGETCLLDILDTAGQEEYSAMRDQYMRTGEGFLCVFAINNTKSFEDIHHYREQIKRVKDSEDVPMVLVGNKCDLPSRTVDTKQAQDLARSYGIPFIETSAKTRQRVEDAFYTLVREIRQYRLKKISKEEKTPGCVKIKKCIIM
The mark [1] stands for this setting: measured here: G75C mutant labeling.
[2] abbreviates: measured here: H94C mutant labeling.
[3] abbreviates: measured here: I36C mutant labeling.
Where [4] appears, read: measured here: L120C mutant labeling.
[5] abbreviates: measured here: M67C mutant labeling.
Where [6] appears, read: measured here: M72C mutant labeling.
Setting [7] is: measured here: N86C mutant labeling.
Where [8] appears, read: measured here: P121C mutant labeling.
Setting [9] is: measured here: S122C mutant labeling.
[10] abbreviates: measured here: S136C mutant labeling.
[11] abbreviates: measured here: G60C mutant labeling.
Setting [12] is: measured here: N26C mutant labeling.

For `Cn1nc(CNC(=O)CCS)cc1C(N)=O`, the percent labeling turned out to be 10.8% under setting [1]; 24.2% under setting [2]; 38.3% under setting [3]; 24.1% under setting [4]; 29.6% under setting [5]; 16.9% under setting [6]. Also, the percent labeling was 16.5% under setting [7], 31.7% under setting [8], 36.9% under setting [9] and 44.9% under setting [10].

On to `CC(C)(C)OCC(=O)NC(C)(C)C(=O)NCCS`, for which the percent labeling is, setting by setting: under setting [11], 15.5%; under setting [1], 5.8%; under setting [2], 26.7%; under setting [3], 19.1%; under setting [4], 40.7%; under setting [5], 24%. Further, the percent labeling came to 12.8% under setting [6]; 26.5% under setting [12]; 20.9% under setting [7]; 26.4% under setting [8]; 31.3% under setting [9]; 34.4% under setting [10].

Consider `Cn1nc(CCNC(=O)CCS)nc1-c1ccccc1`, for which the percent labeling reads like this: under setting [1], 9.8%; under setting [2], 37.9%; under setting [3], 40.4%; under setting [4], 30.4%; under setting [5], 45.8%; under setting [6], 19.8%. In addition, the percent labeling runs as follows: under setting [7], 24.2%; under setting [8], 34%; under setting [9], 33.9%; under setting [10], 55.3%.

For `O=C(CC1(c2ccc(C(F)(F)F)cc2)CC1)NCCS`, the percent labeling runs as follows: under setting [11], 50.2%; under setting [1], 21.1%; under setting [2], 39.4%; under setting [3], 15.7%; under setting [4], 26.7%; under setting [5], 21%. For the same compound, the percent labeling runs as follows: under setting [6], 28.3%; under setting [12], 29.2%; under setting [7], 17.8%; under setting [8], 23%; under setting [9], 15.9%; under setting [10], 23.2%.

With `O=C(CCS)N1CC(c2cc3n(n2)CCCC3)C1`, the percent labeling runs as follows: under setting [1], 17.2%; under setting [2], 28.2%; under setting [3], 35.5%; under setting [4], 26.1%; under setting [5], 44%; under setting [6], 27.6%. Moreover, the percent labeling was found to be 16.7% under setting [7], 31.4% under setting [8], 32.2% under setting [9] and 54.9% under setting [10].

For the compound `CN1CCCN(C(=O)CCS)c2ccccc21`, the percent labeling amounted to 13.2% under setting [1]; 39.4% under setting [2]; 40% under setting [3]; 20.2% under setting [4]; 37.1% under setting [5]; 38.3% under setting [6]. Besides, the percent labeling came to 28.2% under setting [7], 27.2% under setting [8], 29.5% under setting [9] and 51.2% under setting [10].

`CN1CCC(c2ccccc2)CC1C(=O)NCCS` (centres undefined) displayed a percent labeling under setting [11] of 60%; a percent labeling under setting [1] of 27.6%; a percent labeling under setting [2] of 40%; a percent labeling under setting [3] of 38.8%; a percent labeling under setting [4] of 45.2%; a percent labeling under setting [5] of 60.8%. Moreover, the percent labeling is, setting by setting: under setting [6], 34.8%; under setting [12], 52%; under setting [7], 31.6%; under setting [8], 42.7%; under setting [9], 30.6%; under setting [10], 62.7%.

`O=C(CCS)N(Cc1ccc(Cl)cc1)c1ccccc1` gave a percent labeling under setting [1] of 30.2%; a percent labeling under setting [2] of 37.1%; a percent labeling under setting [3] of 29.4%; a percent labeling under setting [4] of 28.7%; a percent labeling under setting [5] of 24%; a percent labeling under setting [6] of 41.3%. For the same compound, the percent labeling was determined as 32.1% under setting [7], 28.7% under setting [8], 14.4% under setting [9] and 37.7% under setting [10].

Regarding `COc1ccc2c(c1)C1(CC1)CN(C(=O)CCS)C2`, the percent labeling is, setting by setting: under setting [1], 11.3%; under setting [2], 17.1%; under setting [3], 18.1%; under setting [4], 26%; under setting [5], 21.8%; under setting [6], 29.6%. The percent labeling under setting [7] was determined as 12.4%, the percent labeling under setting [8] amounted to 21.8%, the percent labeling under setting [9] stood at 17.5% and the percent labeling under setting [10] was 34.1%.

As for `COCc1ccc(C(=O)NCCS)cc1OC`, the percent labeling by setting is: under setting [11], 31.5%; under setting [1], 14.3%; under setting [2], 26%; under setting [3], 22.7%; under setting [4], 38.7%; under setting [5], 30.7%. The percent labeling reads like this: under setting [6], 44.3%; under setting [12], 40.1%; under setting [7], 19.3%; under setting [8], 24.3%; under setting [9], 25.9%; under setting [10], 60.3%.

On to `O=C(NCCS)c1c[nH]c(=O)cc1C(F)(F)F`, for which the percent labeling reads like this: under setting [11], 28.5%; under setting [1], 16.1%; under setting [2], 29.7%; under setting [3], 26.9%; under setting [4], 34.8%; under setting [5], 29.8%. The percent labeling was determined as 25.5% under setting [6]; 39.1% under setting [12]; 42.6% under setting [7]; 33.3% under setting [8]; 35.7% under setting [9]; 40.8% under setting [10].

As to `CC(Cn1ncc2ccccc21)C(=O)NCCS` (centres undefined), the percent labeling by setting is: under setting [11], 39.6%; under setting [1], 14.9%; under setting [2], 34.8%; under setting [3], 32.1%; under setting [4], 38.1%; under setting [5], 42.1%. The compound further yielded a percent labeling under setting [6] of 42.8%; a percent labeling under setting [12] of 34.8%; a percent labeling under setting [7] of 18.1%; a percent labeling under setting [8] of 34%; a percent labeling under setting [9] of 32.3%; a percent labeling under setting [10] of 46.2%.

In the case of `O=C(NCCS)c1cc(Br)cc2[nH]c(=O)[nH]c12`, the percent labeling runs as follows: under setting [11], 27.2%; under setting [1], 29.7%; under setting [2], 23.1%; under setting [3], 16.5%; under setting [4], 25.2%; under setting [5], 17.4%. For the same compound, the percent labeling runs as follows: under setting [6], 46.3%; under setting [12], 41.8%; under setting [7], 13.9%; under setting [8], 14.9%; under setting [9], 9.2%; under setting [10], 28.9%.

Turning to `CC(C)n1cc2cc(NC(=O)CCS)ccc2n1`, the percent labeling came out at 11.7% under setting [1]; 15.7% under setting [2]; 26.3% under setting [3]; 12.3% under setting [4]; 23% under setting [5]; 29.7% under setting [6]. For the same compound, the percent labeling by setting is: under setting [7], 13.3%; under setting [8], 26.8%; under setting [9], 21.3%; under setting [10], 37.9%.

The compound `O=C(CCS)NC1(c2ncon2)CCOCC1` had a percent labeling under setting [1] of 0%; a percent labeling under setting [2] of 11.5%; a percent labeling under setting [3] of 12.3%; a percent labeling under setting [4] of 7.5%; a percent labeling under setting [5] of 11.7%; a percent labeling under setting [6] of 5.5%. This compound also yielded a percent labeling under setting [7] of 3.7%, a percent labeling under setting [8] of 18.2%, a percent labeling under setting [9] of 18.8% and a percent labeling under setting [10] of 22.8%.
